Source: US9890133B2 (priority 2011, dated 2018)

Tests used:
Coxsackie B1 = assay: organism not typed; conditions: read-out: Coxsackie B1 EC50
Coxsackie B3 = assay: microbe, parasite or virus in culture; conditions: Enterovirus B, B3, read-out: Coxsackie B3 EC50
Rhinovirus = assay: microbe, parasite or virus in culture; assay type: cell-based; conditions: Enterovirus
[1] = HRV14, read-out: Rhino HRV14 EC50
[2] = HRV21, read-out: Rhino HRV21 EC50
[3] = HRV71, read-out: Rhino HRV71 EC50

Structure (SMILES): Cc1c(C(=O)NC23C(=O)c4c(N)cccc4C2(O)Oc2cc(C(C)C)ccc23)oc2ccccc12 (stereo not drawn) [Example 205]
- EC50 (Coxsackie B1): < 0.01 µg/mL
- EC50 (Coxsackie B3): < 0.01 µg/mL
- EC50 (Rhinovirus; [1]): < 0.01 µg/mL

Structure (SMILES): Cc1ncsc1C(=O)NC12C(=O)c3c(N)cccc3C1(O)Oc1cc(C(C)C)ccc12 (stereo not drawn) [Example 206, N-(1-Amino-4b-hydroxy-7-isopropyl-10-oxo-9b,10-dihydro-4bH-indeno[1,2-b]benzofuran-9b-yl)-4-methylthiazole-5-carboxamide]
- EC50 (Coxsackie B1): < 0.01 µg/mL
- EC50 (Coxsackie B3): < 0.01 µg/mL
- EC50 (Rhinovirus; [1]): < 0.01 µg/mL
- EC50 (Rhinovirus; [2]): < 1 µg/mL
- EC50 (Rhinovirus; [3]): < 1 µg/mL

Structure (SMILES): CC(C)c1ccc2c(c1)OC1(O)c3cccc(N)c3C(=O)C21NC(=O)[C@@H]1CSC(=O)N1 (stereo partly drawn) [Example 207, (4R)—N-(1-amino-4b-hydroxy-7-isopropyl-10-oxo-9b,10-dihydro-4bH-indeno[1,2-b]benzofuran-9b-yl)-2-oxothiazolidine-4-carboxamide]
- EC50 (Coxsackie B1): < 0.01 µg/mL
- EC50 (Coxsackie B3): < 0.01 µg/mL
- EC50 (Rhinovirus; [1]): < 0.01 µg/mL
- EC50 (Rhinovirus; [2]): < 1 µg/mL

Structure (SMILES): CC(C)c1ccc2c(c1)OC1(O)c3ccccc3C(=O)C21NC(=O)c1cc2ccccc2[nH]1 (stereo not drawn) [Example 208, N-(4b-hydroxy-7-isopropyl-10-oxo-9b,10-dihydro-4bH-indeno[1,2-b]benzofuran-9b-yl)-1H-indole-2-carboxamide]
- EC50 (Coxsackie B1): < 0.01 µg/mL
- EC50 (Coxsackie B3): < 0.01 µg/mL
- EC50 (Rhinovirus; [1]): < 0.01 µg/mL

Structure (SMILES): CC(C)c1ccc2c(c1)OC1(O)c3ccccc3C(=O)C21NC(=O)c1c[nH]c2ccccc12 (stereo not drawn) [Example 209, N-(4b-Hydroxy-7-isopropyl-10-oxo-9b,10-dihydro-4bH-indeno[1,2-b]benzofuran-9b-yl)-1H-indole-3-carboxamide]
- EC50 (Coxsackie B1): < 0.01 µg/mL
- EC50 (Coxsackie B3): < 0.01 µg/mL
- EC50 (Rhinovirus; [1]): < 0.01 µg/mL

Structure (SMILES): CC(C)c1ccc2c(c1)OC1(O)c3ccccc3C(=O)C21NC(=O)c1cnn(-c2ccccc2)c1C(F)(F)F (stereo not drawn) [Example 211]
- EC50 (Coxsackie B1): < 0.01 µg/mL
- EC50 (Coxsackie B3): < 0.01 µg/mL
- EC50 (Rhinovirus; [1]): 0.039 µg/mL (≈ 0.0731 µM)

Structure (SMILES): CC(C)c1ccc2c(c1)OC1(O)c3cccc(N)c3C(=O)C21NC(=O)c1n[nH]c2ccccc12 (stereo not drawn) [Example 212, N-(1-Amino-4b-hydroxy-7-isopropyl-10-oxo-9b,10-dihydro-4bH-benzo[d]indeno[1,2-b]furan-9b-yl)-1H-indazole-3-carboxamide]
- EC50 (Coxsackie B1): < 0.01 µg/mL
- EC50 (Coxsackie B3): < 0.01 µg/mL
- EC50 (Rhinovirus; [1]): < 0.01 µg/mL
- EC50 (Rhinovirus; [3]): < 1 µg/mL

Structure (SMILES): CC(C)c1ccc2c(c1)OC1(O)c3cccc(N)c3C(=O)C21NC(=O)Cn1cnnn1 (stereo not drawn) [Example 213, N-(1-Amino-4b-hydroxy-7-isopropyl-10-oxo-9b,10-dihydro-4bH-benzo[d]indeno[1,2-b]furan-9b-yl)-2-(1H-tetrazol-1-yl)acetamide]
- EC50 (Coxsackie B1): < 0.01 µg/mL
- EC50 (Coxsackie B3): < 0.01 µg/mL
- EC50 (Rhinovirus; [1]): < 0.01 µg/mL
- EC50 (Rhinovirus; [2]): < 1 µg/mL
- EC50 (Rhinovirus; [3]): < 1 µg/mL

Structure (SMILES): CC(C)c1ccc2c(c1)OC1(O)c3cccc(N)c3C(=O)C21NC(=O)c1cnc2ccccc2c1 (stereo not drawn) [Example 214, N-(1-Amino-4b-hydroxy-7-isopropyl-10-oxo-9b,10-dihydro-4bH-indeno[1,2-b]benzofuran-9b-yl)quinoline-3-carboxamide]
- EC50 (Coxsackie B1): < 0.01 µg/mL
- EC50 (Coxsackie B3): < 0.01 µg/mL
- EC50 (Rhinovirus; [1]): < 0.01 µg/mL
- EC50 (Rhinovirus; [2]): < 1 µg/mL
- EC50 (Rhinovirus; [3]): < 1 µg/mL

Structure (SMILES): CC(C)c1ccc2c(c1)OC1(O)c3cccc(N)c3C(=O)C21NC(=O)c1ccnc2ccccc12 (stereo not drawn) [Example 215, N-(1-Amino-4b-hydroxy-7-isopropyl-10-oxo-9b,10-dihydro-4bH-indeno[1,2-b]benzofuran-9b-yl)quinoline-4-carboxamide]
- EC50 (Coxsackie B1): < 0.01 µg/mL
- EC50 (Coxsackie B3): < 0.01 µg/mL
- EC50 (Rhinovirus; [1]): < 0.01 µg/mL
- EC50 (Rhinovirus; [2]): < 1 µg/mL

Structure (SMILES): COc1sccc1C(=O)NC12C(=O)c3c(N)cccc3C1(O)Oc1cc(C(C)C)ccc12 (stereo not drawn) [Example 217, N-(1-Amino-4b-hydroxy-7-isopropyl-10-oxo-9b,10-dihydro-4bH-indeno[1,2-b]benzofuran-9b-yl)-2-methoxythiophene-3-carboxamide]
- EC50 (Coxsackie B1): < 0.01 µg/mL
- EC50 (Coxsackie B3): < 0.01 µg/mL
- EC50 (Rhinovirus; [1]): < 0.01 µg/mL

Structure (SMILES): CC(C)c1ccc2c(c1)OC1(O)c3ccccc3C(=O)C21NC(=O)c1ccccn1 (stereo not drawn) [Example 218, N-(4b-Hydroxy-7-isopropyl-10-oxo-9b,10-dihydro-4bH-indeno[1,2-b]benzofuran-9b-yl)picolinamide]
- EC50 (Coxsackie B1): < 0.01 µg/mL
- EC50 (Coxsackie B3): < 0.01 µg/mL
- EC50 (Rhinovirus; [1]): < 0.01 µg/mL

Structure (SMILES): CC(C)c1ccc2c(c1)OC1(O)c3ccccc3C(=O)C21NC(=O)c1ccncn1 (stereo not drawn) [Example 219, N-(4b-Hydroxy-7-isopropyl-10-oxo-9b,10-dihydro-4bH-indeno[1,2-b]benzofuran-9b-yl)pyrimidine-4-carboxamide]
- EC50 (Coxsackie B1): < 0.01 µg/mL
- EC50 (Coxsackie B3): < 0.01 µg/mL
- EC50 (Rhinovirus; [1]): < 0.01 µg/mL

Structure (SMILES): CC(C)c1ccc2c(c1)OC1(O)c3ccccc3C(=O)C21NC(=O)c1ccc2[nH]nnc2c1 (stereo not drawn) [Example 221, N-(4b-Hydroxy-7-isopropyl-10-oxo-9b,10-dihydro-4bH-benzo[d]indeno[1,2-b]furan-9b-yl)-1H-benzo[d][1,2,3]triazole-5-carboxamide]
- EC50 (Coxsackie B1): < 0.01 µg/mL
- EC50 (Coxsackie B3): < 0.01 µg/mL
- EC50 (Rhinovirus; [1]): < 0.01 µg/mL

Structure (SMILES): CC(C)c1ccc2c(c1)OC1(O)c3ccccc3C(=O)C21NC(=O)c1nc[nH]n1 (stereo not drawn) [Example 222, N-(4b-Hydroxy-7-isopropyl-10-oxo-9b,10-dihydro-4bH-benzo[d]indeno[1,2-b]furan-9b-yl)-1H-1,2,4-triazole-3-carboxamide]
- EC50 (Coxsackie B1): < 0.01 µg/mL
- EC50 (Coxsackie B3): < 0.01 µg/mL
- EC50 (Rhinovirus; [1]): 0.037 µg/mL (≈ 0.0948 µM)

Structure (SMILES): Cc1onc(-c2c(F)cccc2Cl)c1C(=O)NC12C(=O)c3c(N)cccc3C1(O)Oc1cc(C(C)C)ccc12 (stereo not drawn) [Example 228, N-(1-Amino-4b-hydroxy-7-isopropyl-10-oxo-9b,10-dihydro-4bH-indeno[1,2-b]benzofuran-9b-yl)-3-(2-chloro-6-fluorophenyl)-5-methylisooxazole-4-carboxamide]
- EC50 (Coxsackie B1): < 0.01 µg/mL
- EC50 (Coxsackie B3): < 0.01 µg/mL
- EC50 (Rhinovirus; [1]): 0.029 µg/mL (≈ 0.0529 µM)

Structure (SMILES): CC(C)c1ccc2c(c1)OC1(O)c3ccccc3C(=O)C21NC(=O)c1cc(-c2ccccc2)n[nH]1 (stereo not drawn) [Example 229, N-(4b-hydroxy-7-isopropyl-10-oxo-9b,10-dihydro-4bH-indeno[1,2-b]benzofuran-9b-yl)-3-phenyl-1H-pyrazole-5-carboxamide]
- EC50 (Coxsackie B1): < 0.01 µg/mL
- EC50 (Coxsackie B3): < 0.01 µg/mL
- EC50 (Rhinovirus; [1]): 0.036 µg/mL (≈ 0.0773 µM)

Structure (SMILES): CC(C)c1ccc2c(c1)OC1(O)c3ccccc3C(=O)C21NC(=O)c1cccnc1 (stereo not drawn) [Example 230, N-(4b-Hydroxy-7-isopropyl-10-oxo-9b,10-dihydro-4bH-indeno[1,2-b]benzofuran-9b-yl)nicotinamide]
- EC50 (Coxsackie B1): < 0.01 µg/mL
- EC50 (Coxsackie B3): < 0.01 µg/mL
- EC50 (Rhinovirus; [1]): < 0.01 µg/mL
- EC50 (Rhinovirus; [2]): < 1 µg/mL

Structure (SMILES): CC(C)c1ccc2c(c1)OC1(O)c3cccc(N)c3C(=O)C21NC(=O)C(=O)c1cccs1 (stereo not drawn) [Example 231, N-(1-Amino4b-hydroxy-7-isopropyl-10-oxo-9b,10-dihydro-4bH-indeno[1,2-b]benzofuran-9b-yl)-2-oxo-2-(thiophen-2-yl)acetamide]
- EC50 (Coxsackie B1): < 0.01 µg/mL
- EC50 (Coxsackie B3): < 0.01 µg/mL
- EC50 (Rhinovirus; [1]): < 0.01 µg/mL

Structure (SMILES): CC(C)c1ccc2c(c1)OC1(O)c3cccc(N)c3C(=O)C21NC(=O)c1ccc[nH]1 (stereo not drawn) [Example 233, N-(1-Amino-4b-hydroxy-7-isopropyl-10-oxo-9b,10-dihydro-4bH-indeno[1,2-b]benzofuran-9b-yl)-1H-pyrrole-2-carboxamide]
- EC50 (Coxsackie B1): < 0.01 µg/mL
- EC50 (Coxsackie B3): < 0.01 µg/mL
- EC50 (Rhinovirus; [1]): < 0.01 µg/mL
- EC50 (Rhinovirus; [2]): < 1 µg/mL
- EC50 (Rhinovirus; [3]): < 1 µg/mL

≈ marks a conversion by molar mass, not a printed value. Where two headings read alike, the source gives them in different places.
